Measured values published in the supplement of paper PMC12217912.
The list shows a part of the results. Sequences were assembled here from the parent chain. Inactive controls read about 0.05.

B1: TEV protease; numbered along this chain (parent)
chain: MGESLFKGPRDYNPISSSICHLTNESDGHTTSLYGIGFGPFIITNKHLFRRNNGTLVVQSLHGVFKVKDTTTLQQHLVDGRDMIIIRMPKDFPPFPQKLKFREPQREERICLVTTNFQTKSMSSMVSDTSCTFPSGDGIFWKHWIQTKDGQCGSPLVSTRDGFIVGIHSASNFTNTNNYFTSVPKNFMELLTNQEAQQWVSGWRLNADSVLWGGHKVFMVKPEEPFQPVKEATQL

Variants of: B1
Assay: raw area under fraction-flipped curve 0-4 h after induction (AUC4h, not background-subtracted), DNA-recorder readout of cleavage of the substrate (dimensionless); higher = more cleavage of the substrate by the protease variant
Settings: temperature: 34 °C; time window: 0-4 h after rhamnose induction
Description: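 In vivo DNA recorder in E. coli TOP10(DE3) ΔrhaA at 34 °C. Each TEVp single-site mutant (parent TEVp 0) is paired with a single-site variant of the 7-mer TEVs (canonical ENLYFQ|S). The substrate sits between flexible linkers in a Bxb1-sfGFP-TEVs-SsrA fusion, so cleavage stabilises Bxb1 and speeds flipping of a recombination array, read by NGS. The value is the raw area under the fraction-flipped curve over 0-4 h after rhamnose induction (AUC4h), with ≥20 reads per time point. It is not background-subtracted; inactive controls average about 0.047.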
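Further: Bxb1 expression induced with 0.2% (w/v) L-rhamnose at OD600 near 0.5, cultures sampled hourly, flipped fraction per protease–substrate barcode pair counted by paired-end Illumina sequencing.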

Row | Variant | area with substrate ENLAFQS | area with substrate ENLDFQS | area with substrate ENLFFQS | area with substrate ENLGFQS | area with substrate ENLKFQS | area with substrate ENLNFQS | area with substrate ENLRFQS | area with substrate ENLWFQS | area with substrate ENLHFQS | area with substrate ENLMFQS
1 | S4A | 0.0692 | 0.0701 | 0.0935 | 0.0076 | 0.0882 | 0.0678 | 0.0771 | 0.0727 |  | 
2 | I145G | 0.052 | 0.0674 | 0.0724 |  | 0.0826 |  |  | 0.0632 | 0.0895 | 0.0649
3 | Y34H | 0.0664 | 0.0577 |  |  | 0.0985 |  |  | 0.0515 | 0.0789 | 
4 | S121F | 0.0586 | 0.0659 | 0.0563 |  |  | 0.063 |  |  |  | 
5 | F226V | 0.0627 | 0.0532 |  | 0.0759 |  |  |  | 0.0858 |  | 
6 | L61F | 0.0478 | 0.063 | 0.0775 | 0.0587 |  | 0.07 |  |  |  | 
7 | I110F | 0.0469 | 0.0549 | 0.0578 |  | 0.0558 | 0.0612 | 0.0583 | 0.054 | 0.0449 | 
8 | I110R | 0.0638 | 0.0543 |  | 0.0593 | 0.0657 |  |  | 0.0308 |  | 
9 | Q194I | 0.0986 |  | 0.104 |  | 0.0752 | 0.0637 |  | 0.0579 |  | 
10 | A170E | 0.0995 |  |  |  |  | 0.0647 |  | 0.0492 | 0.0301 | 
11 | S124G | 0.0743 | 0.052 | 0.0575 |  |  | 0.0691 |  |  | 0.0793 | 
12 | E103S | 0.0793 | 0.061 |  |  |  |  | 0.0812 |  |  | 
13 | T31I | 0.0611 | 0.058 | 0.0805 | 0.0604 | 0.0961 | 0.069 | 0.0647 | 0.113 | 0.0667 | 
14 | S158E | 0.0522 |  | 0.059 |  |  | 0.0319 |  | 0.0566 |  | 
15 | S158V | 0.0546 | 0.0582 | 0.051 |  | 0.0658 | 0.0501 | 0.0628 | 0.0382 | 0.0514 | 
16 | N175A | 0.0412 | 0.0585 | 0.088 |  | 0.092 |  | 0.0802 | 0.0691 | 0.0541 | 
17 | D91S | 0.0731 | 0.065 | 0.0793 |  | 0.0708 |  | 0.0718 |  |  | 

Row | Variant | area with substrate ENLAFQS | area with substrate ENLDFQS | area with substrate ENLFFQS | area with substrate ENLGFQS | area with substrate ENLKFQS | area with substrate ENLNFQS | area with substrate ENLRFQS | area with substrate ENLWFQS | area with substrate ENLHFQS | area with substrate ENLMFQS
18 | N178S | 0.0855 | 0.0699 | 0.118 |  | 0.0557 | 0.0599 | 0.0825 | 0.0535 |  | 0.0802
19 | N178Q | 0.073 |  | 0.103 | 0.077 |  |  |  | 0.0956 |  | 
20 | P228R | 0.0684 | 0.0468 |  | 0.0626 |  | 0.0575 |  | 0.0909 | 0.0668 | 
21 | P228W | 0 |  | 0.0907 |  | 0.0699 | 0.0571 |  |  | 0.0771 | 
22 | W203S | 0.0618 | 0.0532 |  |  | 0.0622 | 0.059 | 0.0512 |  | 0.0519 | 
23 | I84V | 0.0736 | 0.0617 | 0.107 |  | 0.0678 | 0.0623 |  |  | 0.0757 | 0.0638
24 | I84N | 0.059 |  | 0.0651 | 0.0327 |  | 0.0561 | 0.0495 |  | 0.0559 | 
25 | T115Q | 0.0588 | 0.0477 | 0.0675 |  | 0.0901 | 0.0756 | 0.0708 | 0.0718 | 0.0732 | 
26 | T115K | 0.0716 | 0.073 | 0.0782 | 0.0462 | 0.106 | 0.0692 |  |  | 0.0774 | 0.0759
27 | E231I | 0.0548 | 0.0711 | 0.0802 | 0.0741 | 0.0471 | 0.0611 |  |  | 0.0705 | 
28 | H215L | 0.0393 | 0.0692 | 0.0665 |  | 0.0663 | 0.0689 | 0.0587 |  | 0.057 | 0.0611
29 | E3W | 0.0636 | 0.0639 | 0.0976 |  | 0.0878 | 0.0717 | 0.0936 |  | 0.0586 | 0.0774
30 | E3V | 0.0718 | 0.056 | 0.103 |  | 0.0907 | 0.0688 | 0.096 |  | 0.0799 | 
31 | E3A | 0.0531 |  | 0.0817 |  | 0.0673 |  | 0.0847 | 0.0528 | 0.0738 | 0.0901
32 | W199S | 0.0698 | 0.0654 | 0.077 | 0.0652 | 0.0742 | 0.0575 |  |  | 0.0646 | 0.0567
33 | M125Y | 0.034 | 0.0575 | 0.0739 | 0.0863 |  |  |  |  | 0.0792 | 
34 | S209E | 0.0807 | 0.0715 | 0.0864 | 0.0767 | 0.0952 | 0.0557 |  |  |  | 

Same assay, conditions: temperature: 34 °C; time window: 0-4 h after rhamnose induction

Row | Variant | area with substrate ENLPFQS | area with substrate ENLQFQS | area with substrate ENLCFQS | area with substrate ENLLFQS | area with substrate ENLSFQS | area with substrate ENLEFQS | area with substrate ENLVFQS | area with substrate ENLIFQS | area with substrate ENLTFQS
35 | I145G | 0.0475 | 0.0708 |  |  |  |  |  |  | 
36 | Y34H | 0.0497 | 0.0762 | 0.068 | 0.0814 |  |  |  |  | 
37 | S121F |  | 0.0621 |  | 0.0786 | 0.0959 |  |  |  | 
38 | F226V | 0.0535 |  |  |  |  | 0.069 |  |  | 
39 | L61F | 0.0495 |  |  |  | 0.0597 |  | 0.0814 |  | 
40 | I110F | 0.0489 | 0.052 | 0.0526 |  | 0.0497 | 0.0597 | 0.046 | 0.0477 | 0.066
41 | I110R |  |  | 0.0645 | 0.0437 | 0.0417 | 0.0606 |  | 0.0529 | 
42 | Q194I |  | 0.0558 |  |  | 0.0822 |  |  | 0.0907 | 
43 | A170E |  |  | 0.0632 |  |  |  |  | 0.0754 | 
44 | S124G |  | 0.0625 | 0.0765 | 0.0649 | 0.0751 |  |  |  | 
45 | E103S | 0.0804 |  |  |  |  |  |  |  | 
46 | T31I | 0.0583 |  |  |  | 0.0753 |  |  |  | 0.0728
47 | S158E |  |  |  |  | 0.0601 | 0.0787 |  |  | 
48 | S158V | 0.0516 | 0.0528 | 0.0688 | 0.0532 | 0.0556 |  |  |  | 
49 | N175A | 0.0623 |  |  | 0.0415 | 0.0559 | 0.0699 |  |  | 
50 | D91S |  |  |  | 0.0739 |  | 0.0574 |  |  | 

Row | Variant | area with substrate ENLPFQS | area with substrate ENLQFQS | area with substrate ENLCFQS | area with substrate ENLLFQS | area with substrate ENLSFQS | area with substrate ENLEFQS | area with substrate ENLVFQS | area with substrate ENLIFQS | area with substrate ENLTFQS
51 | N178S | 0.0642 |  |  |  | 0.0704 |  |  |  | 
52 | N178Q |  | 0.0786 | 0.0596 |  |  | 0.0647 |  |  | 
53 | P228R | 0.058 | 0.0662 |  |  |  |  | 0.0871 | 0.104 | 
54 | P228W |  | 0.07 |  |  |  |  |  |  | 
55 | W203S | 0.0561 |  |  | 0.0582 | 0.0619 | 0.0633 | 0.0438 | 0.052 | 
56 | I84V | 0.074 |  | 0.063 | 0.065 |  | 0.0755 | 0.0895 | 0.0795 | 
57 | I84N | 0.0554 |  |  |  |  | 0.048 |  |  | 
58 | T115Q | 0.0664 | 0.101 | 0.0678 | 0.0646 | 0.0615 | 0.0685 | 0.0885 | 0.0895 | 
59 | T115K | 0.0554 | 0.0453 | 0.0854 |  | 0.0688 | 0.062 |  | 0.0939 | 0.0613
60 | E231I |  | 0.0731 | 0.0899 |  | 0.0774 |  | 0.073 | 0.044 | 0.0814
61 | H215L |  | 0.07 |  | 0.0513 | 0.0468 | 0.0641 | 0.0575 | 0.06 | 
62 | E3W | 0.0604 |  | 0.0657 |  |  | 0.0781 |  | 0.0788 | 0.0657
63 | E3V |  |  |  |  | 0.0987 | 0.0548 |  |  | 
64 | E3A |  |  | 0.0458 | 0.0701 |  |  |  | 0.0592 | 
65 | W199S | 0.0586 |  |  |  | 0.0605 |  |  |  | 
66 | S209E |  | 0.0568 |  | 0.0721 |  | 0.0671 |  | 0.0887 | 
